# About 2,200 (0.71%) of roughly 310,000 compounds showed an effect of 50% or more. Effects have a minus sign here. The list shows a part of the results.
# Target: human ether-à-go-go-related gene (hERG) potassium channel (human, UniProt Q12809)
# Test: primary screen, population patch clamp on CHO cells stably expressing hERG
# Chain of human ether-à-go-go-related gene (hERG) potassium channel (Q12809 whole entry, looked up): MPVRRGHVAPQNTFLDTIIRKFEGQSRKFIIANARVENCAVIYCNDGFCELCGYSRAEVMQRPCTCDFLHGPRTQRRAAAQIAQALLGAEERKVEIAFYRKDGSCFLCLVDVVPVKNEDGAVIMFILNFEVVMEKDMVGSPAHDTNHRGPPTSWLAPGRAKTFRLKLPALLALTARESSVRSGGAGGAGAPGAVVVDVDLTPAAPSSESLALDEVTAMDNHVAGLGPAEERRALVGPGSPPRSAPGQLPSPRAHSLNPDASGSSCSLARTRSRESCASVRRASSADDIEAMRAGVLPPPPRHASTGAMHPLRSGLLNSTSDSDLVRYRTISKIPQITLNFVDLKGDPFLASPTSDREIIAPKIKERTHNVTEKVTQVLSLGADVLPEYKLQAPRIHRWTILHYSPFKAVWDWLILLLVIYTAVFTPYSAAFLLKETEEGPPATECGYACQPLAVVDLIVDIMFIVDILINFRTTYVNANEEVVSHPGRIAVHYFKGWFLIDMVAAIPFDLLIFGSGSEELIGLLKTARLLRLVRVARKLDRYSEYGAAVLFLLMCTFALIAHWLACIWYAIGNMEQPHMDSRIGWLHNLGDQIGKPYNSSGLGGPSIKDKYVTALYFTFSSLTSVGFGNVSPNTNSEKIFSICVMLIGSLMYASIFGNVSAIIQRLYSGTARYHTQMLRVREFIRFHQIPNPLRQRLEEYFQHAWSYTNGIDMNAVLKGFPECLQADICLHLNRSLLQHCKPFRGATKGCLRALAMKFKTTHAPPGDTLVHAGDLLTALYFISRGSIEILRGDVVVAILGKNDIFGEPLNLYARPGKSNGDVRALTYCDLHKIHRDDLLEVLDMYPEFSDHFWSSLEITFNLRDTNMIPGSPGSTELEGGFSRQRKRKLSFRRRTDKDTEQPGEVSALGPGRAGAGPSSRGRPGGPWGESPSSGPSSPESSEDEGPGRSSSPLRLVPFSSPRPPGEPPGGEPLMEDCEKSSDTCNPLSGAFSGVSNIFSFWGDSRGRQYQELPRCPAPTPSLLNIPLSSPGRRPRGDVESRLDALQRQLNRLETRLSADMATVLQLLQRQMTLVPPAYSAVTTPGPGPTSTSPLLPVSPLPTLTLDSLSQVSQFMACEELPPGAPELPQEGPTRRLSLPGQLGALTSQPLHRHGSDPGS
row,Structure (SMILES),"hERG current change (%, negative = inhibition) at 1uM"
1,Cc1cc2cc(C(c3nnnn3Cc3ccccc3)N3CCc4ccccc43)c(=O)[nH]c2cc1C (stereo not drawn),1.41%
2,CS/C(N)=N/N=C/c1c(O)ccc2ccccc12,0.189%
3,CC1(C)CC(CC(=O)Nc2nccs2)(c2ccccc2)CCO1 (stereo not drawn),3.87%
4,CC(Sc1n[nH]c(N)n1)c1nc2scc(-c3cccs3)c2c(=O)[nH]1 (stereo not drawn),9.29%
5,Cc1ccccc1S(=O)(=O)Cc1ccc(C(=O)NCc2ccc(F)cc2)o1,-5.68%
6,C=CCn1c(=O)c2ccc(C(=O)NCc3ccccc3)cc2n(Cc2ccc(C)cc2)c1=O,21.2%
7,CCCCOC(=O)c1ccc(NC(=S)N2CCN(c3ncc4c(=O)c(C(=O)O)cn(CC)c4n3)CC2)cc1,10.8%
8,O=C(NNC(=S)NCc1ccco1)c1cccs1,2.04%
9,Cc1ccnc2nc(C(=O)Nc3nnc(-c4ccc(Cl)cc4)o3)nn12,8.17%
10,CCCN(CC(=O)Nc1cc(Cl)cc(Cl)c1)CC(=O)Nc1ccc(F)c(F)c1F,9.77%
11,COc1ccc(N2CCN(C(=O)c3cn(Cc4ccccc4)nc3-c3cccnc3)CC2)cc1,0.0813%
12,CCc1ccc(NC(=S)Nc2cc(OC)c(NC(=O)C(C)C)cc2OC)cc1,14.2%
13,CC(=O)N1N=C(c2ccc(Cl)cc2)OC1c1ccc(C(C)C)cc1 (stereo not drawn),9.42%
14,CCOC(=O)c1ccc(NC(=S)N(CCCN2CCCC(C)C2)Cc2ccco2)cc1 (stereo not drawn),-42.8%
15,CCOC(=O)c1c(N)sc(C(N)=O)c1C,15.5%
16,Cc1ccccc1C(=O)NC(NCC1CCCO1)C(Cl)(Cl)Cl (stereo not drawn),7.12%
17,Cc1cn([C@H](C(=O)NCCCCCCCCCCC(=O)N2CCN(C(=O)OC(C)(C)C)CC2)[C@@H](C)O)nn1,19.3%
18,O=c1cc(O)c(-c2cccc(C(F)(F)F)c2)c(Cl)[nH]1,13.7%
19,Cc1ccc(CS(=O)(=O)CCC(=O)NCc2ccccn2)cc1,14%
20,CC(=O)C1=C(O)C(=O)N(c2ccc(O)cc2)C1c1ccc([N+](=O)[O-])cc1 (stereo not drawn),8.46%
21,Cc1cc(NS(=O)(=O)c2ccc(NC(=O)CN3C(=O)NC(C)(c4ccccc4)C3=O)cc2)nc(C)n1 (stereo not drawn),-0.243%
22,COC(=O)[C@@]1(Cc2ccc(OC)cc2)[C@H]2c3cc(C(=O)N4CCCC4)n(Cc4c(CO)[nH]cc(C)c4=O)c3C[C@H]2CN1C(=O)c1ccccc1,14%

row,Structure (SMILES),"hERG current change (%, negative = inhibition) at 1uM"
1,CCCCCC(=O)Nc1ccc(N2CCN(S(C)(=O)=O)CC2)cc1,13.4%
2,CC(C)C(NC(=O)C1CCCCC1)C(=O)Nc1ccncc1 (stereo not drawn),9.58%
3,Cc1ccccc1S(=O)(=O)Nc1cccnc1,11.7%
4,COc1ccc(C(=O)Cc2ccccc2)cc1OC,4.34%
5,CCN(CC(=O)NCCc1ccc(S(N)(=O)=O)cc1)Cc1ccccc1,15.9%
6,CC(=O)NC(Cc1ccccc1)C(=O)OCC(=O)c1ccc(F)cc1 (stereo not drawn),11.6%
7,C/C(=N/NC(=O)Cn1nc2ccccc2n1)c1ccc(F)cc1,1.61%
8,CCOC(=O)C1=C(C)Nc2ccccc2N=C1NC(=O)CCCN1C(=O)c2ccccc2C1=O,6.38%
9,Cc1ccccc1C(=O)c1cccn1CC(=O)NC(C)c1ccc2c(c1)OCCO2 (stereo not drawn),3.25%
10,CCCCN1C(=O)C(NC(=O)CC(C)C)(C(F)(F)F)C2=C1CC(C)(C)CC2=O (stereo not drawn),11%
11,CCOC(=O)c1cc(-c2ccccc2)nc2ccc(C)cc12,5.94%
12,O=c1[nH]cnc2nn(-c3ccccc3)nc12,19.3%
13,C=CCC(O)c1c(-c2ccccc2)nn(C)c1Cl (stereo not drawn),23.7%
14,CCN(CC)Cc1c(O)ccc2c([N+](=O)[O-])c(C)n(-c3ccc(OC)cc3)c12,0.542%
15,Cc1ccoc1C(=O)N1CCN(C(=O)c2occc2C)CC1,15.9%
16,CC(O)CCC(=O)NCCNC(=O)CCC(C)O (stereo not drawn),-2.85%
17,COc1ccc(-c2nc(CSCC(=O)NCCCN3CCCC3=O)c(C)o2)cc1OC,18.4%
18,CC(=O)Nc1ccc(S(=O)(=O)NCC(=O)OCC(=O)NCc2ccco2)cc1,-19.8%
19,CCOC(=O)c1c(NC(=O)c2cccs2)sc(C)c1C,4.47%
20,Cc1ccc(-c2ccc(C(=O)Nc3cccc(F)c3)o2)c2ccccc12,15.1%
21,CCOC(=O)CNC(=O)CSc1nnc(-c2ccccc2OC)n1CC,8.63%
22,Cc1ccc(NC(=O)CC2C(=O)OCC3CCCCN32)cc1Cl (stereo not drawn),12.7%

row,Structure (SMILES),"hERG current change (%, negative = inhibition) at 1uM"
1,O=C1C2C3C=CC(C4CC34)C2C(=O)N1/N=C/c1ccc(-c2ccc(Cl)cc2[N+](=O)[O-])o1 (stereo not drawn),6.75%
2,COc1cccc(N2C(=NC(=O)CCc3ccccc3)SC3CS(=O)(=O)CC32)c1 (stereo not drawn),7.19%
3,CN1CCN(C(=O)CN(C)S(=O)(=O)c2ccc(F)cc2)CC1,16.7%
4,O=C(Nc1ccccc1Cl)C1CC(=O)N(Cc2ccco2)C1 (stereo not drawn),3.25%
5,O=C(Cc1cccc2ccccc12)NCC(=O)N1CCN(Cc2cccc(C(F)(F)F)c2)CC1,9.24%
6,CC(C)CCn1c(=O)c2ccccc2c2ccccc2c1=O,10%
7,COc1ccc(NC(=O)C(c2ccc(OC)cc2)N(C)C(=O)c2cnccn2)cc1 (stereo not drawn),-1.14%
8,O=C(COC(=O)C1CC1)Nc1ncc(C(F)(F)F)cc1Cl,21.5%
9,Cc1ccc(S(=O)(=O)Oc2ccc(C)cc2/C=N/N=C2\NC(=O)C(C)S2)cc1 (stereo not drawn),5.36%
10,Cc1ccc(C)c(NC(=O)CN2C(=O)COc3ccc(S(=O)(=O)N4CCCC4)cc32)c1,9.2%
11,O=C(COc1ccc(F)c(Cl)c1)N1CCN(c2ccccn2)CC1,-13.8%
12,COCCn1c(N)c(NCc2ccccc2)c(=O)n(CC(=O)Nc2cc(C)ccc2C)c1=O,-3.57%
13,Cc1ccc(C(NC(=O)CN2C(=O)NC3(CCCC3)C2=O)c2ccccc2)cc1 (stereo not drawn),9.26%
14,COc1ccc(CNC(=S)Nc2ccccc2)cc1Cl,7.32%
15,CCCc1cc(=O)oc2c(C)c(OC(C)C(=O)NCc3ccccn3)ccc12 (stereo not drawn),-2.56%
16,COc1ccc(S(=O)(=O)n2cnc3ccccc32)cc1.Cl,12.5%
17,CCC1(OC(=O)CN)C(=O)OCc2c1cc1n(c2=O)Cc2cc3ccccc3nc2-1.Cl (stereo not drawn),15.9%
18,N#CC(C#N)=C1NC2(CCCCC2)Cc2ccccc21,10.9%
19,NC(=S)N/N=C/c1ccc(OC(=O)c2cccnc2)cc1,14.4%
20,Cc1ncc(CN2CCCC(C(=O)Nc3ccc(-c4cccc(F)c4)cc3)C2)s1 (stereo not drawn),6.04%
21,COc1ccc(C(=O)NC2CCN(C(=S)Nc3cc(C)ccc3C)CC2)cc1,7.77%
22,O=[N+]([O-])c1cccc(S(=O)(=O)Nc2ccc(S(=O)(=O)NCC3CCCO3)cc2)c1 (stereo not drawn),10.5%

row,Structure (SMILES),"hERG current change (%, negative = inhibition) at 1uM"
1,O=[N+]([O-])c1ccc(-c2cn(-c3ccc(Cl)cc3)c(=S)[nH]2)cc1,9.78%
2,CCOC(=O)CN1CCC(c2cc(-c3ccc(Cl)cc3)n[nH]2)CC1,22.3%
3,CCN(CC)Cc1c(NC(=O)c2ccccc2)sc(C)c1C,-7.95%
4,CCC(Oc1ccccc1F)C(=O)Nc1ccc2c(c1)n(C)c(=O)n2C (stereo not drawn),10.6%
5,COc1cc(/C(C#N)=C/c2cccc3ccccc23)c([N+](=O)[O-])cc1OC,14.3%
6,c1ccc(-c2nn3c(Cn4nnc5ccccc54)nnc3s2)nc1,0.716%
7,O=P(Cc1cc[n+]([O-])cc1)(c1ccccc1)c1ccccc1,15.8%
8,Cc1nn(C(C)(C)C)c(OC(=O)CC(C)C)c1S(=O)(=O)c1ccccc1,10.4%
9,CC(C)Nc1nc(NC(N)=S)nc(NC(C)C)n1,8.9%
10,Cc1ccc2c(CSc3nncs3)cc(=O)oc2c1,3.04%
11,Cc1nnc(SCC(=O)NCC2COc3ccccc3O2)s1 (stereo not drawn),16.1%
12,CCSc1ncnc2c(C#N)c3n(c12)CCCCC3,4.78%
13,CNC(=S)Nc1cccc(C(=O)OC)c1,11.5%
14,CC(C)(C)c1cc(NC(=O)c2cccnc2)no1,-2.17%
15,C=CCNC(=S)N1CCN(c2ccc([N+](=O)[O-])cc2)CC1,-52.1%
16,CCCc1nc2sc3c(c2c(=O)n1NC(=O)c1ccco1)CC(C)(C)OC3,9.77%
17,CC(=O)NC(Cc1cccc(F)c1)C(=O)NC1CCN(C(=O)Nc2ccc(C)cc2)CC1 (stereo not drawn),15.8%
18,COc1ccc(CC2(CO)CCN(C/C=C/c3ccccc3OC)CC2)cc1,-71.4%
19,CCOC(=O)C1CCCN(CC(=O)Nc2c(C(=O)OC)[nH]c3ccc(Cl)cc23)C1 (stereo not drawn),6.43%
20,NS(=O)(=O)c1cc(C(=O)OCC(=O)Nc2ccccc2[N+](=O)[O-])ccc1Cl,8.47%
21,Nc1nc(Nc2ccccc2F)nc(NCCO)c1[N+](=O)[O-],12.2%
